Data published in the supplement of paper PMC3334620.
In all, about 33,000 sequences were measured (“E-score (-0.5 to 0.5)”: median about -0.016, highest 2% from about 0.32 on). This is one part of the list.

biological target: T1, Stp1 (UniProt B3LFK1); assay: PBM E-score (8-mer binding enrichment) (E-score (-0.5 to 0.5)); higher = stronger / more preferred TF binding; most listed sequences are background and not binding sites; details: protein concentration: 200 nM; construct: GST-full length
T1 sequence: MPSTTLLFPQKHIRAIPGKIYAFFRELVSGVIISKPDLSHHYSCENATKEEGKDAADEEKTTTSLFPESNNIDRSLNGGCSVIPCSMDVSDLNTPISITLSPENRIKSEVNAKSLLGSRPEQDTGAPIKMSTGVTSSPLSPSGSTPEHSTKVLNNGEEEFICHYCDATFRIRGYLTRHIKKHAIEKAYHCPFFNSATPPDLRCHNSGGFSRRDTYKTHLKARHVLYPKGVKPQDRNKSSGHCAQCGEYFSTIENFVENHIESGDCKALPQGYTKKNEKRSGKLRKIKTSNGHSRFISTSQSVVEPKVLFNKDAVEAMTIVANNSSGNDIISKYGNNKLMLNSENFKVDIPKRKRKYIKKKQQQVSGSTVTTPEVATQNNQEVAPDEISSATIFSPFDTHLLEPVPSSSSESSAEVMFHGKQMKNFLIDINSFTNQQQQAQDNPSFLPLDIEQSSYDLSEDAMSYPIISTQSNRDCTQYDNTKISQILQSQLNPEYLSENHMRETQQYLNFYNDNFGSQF
Method in brief: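 E-scores (a modified Wilcoxon-Mann-Whitney statistic) were assigned by the Universal PBM Analysis Suite to every ungapped eight-base word pooled with its reverse complement. The input came from universal all-10-mer Agilent arrays made double-stranded by primer extension and probed with GST-tagged yeast transcription factors at about 100-200 nM. Fluorescent anti-GST detected bound protein, and masliner normalised the scans.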

Sequence	PBM E-score
CAGCACTG	-0.0347
GGCAAGGA	0.103
CCTGTGCA	-0.0659
CAGACCAG	-0.236
CCAAAGAA	0.068
AGACATTC	-0.19
AGGGTCTG	-0.329
GATTGACA	0.0335
AGTCTAAT	-0.0659
AAGCCCGC	0.0229
AGCCATCG	-0.0975
GACTGATC	-0.0371
GATTGACC	-0.214
ACGAGCCA	-0.0521
AGTACCGA	-0.0516
AGAGCGCC	0.307
CCACAGGC	-0.242
GCCACAAC	0.152
GTGGGAAC	-0.00564
CAGCTTCC	-0.135
GGCGCCAC	0.384
ACACCCCC	-0.409

Sequence	PBM E-score
CGCCGACG	0.14
CATCGATA	0.126
ACGACTAT	-0.0291
CTCATCCC	-0.211
GGCGGGAA	0.0584
ACCGCCCT	-0.14
CAGATTGC	0.057
AGGGATCG	-0.186
CAAGGCCA	0.144
CGTGAGGC	0.305
CACCTCAG	-0.149
ACGACTAA	-0.112
CTAAACAC	0.0437
GCCAGCAA	-0.114
CCCGTTGA	-0.0684
GGCGGACC	-0.188
TGGATACA	-0.0451
CATCGGGC	-0.221
AAAGTAAG	-0.0278
CCATTCGC	-0.0541
TGTCGTAA	-0.0876
CAGAGGAA	-0.131

Sequence	PBM E-score
CCCGTGTC	0.187
CGAAAAGC	0.0076
ATTTAGTC	0.17
GCCAACTA	0.0365
GCTGGTCC	-0.253
AATATGTC	0.153
ACTTGTAA	-0.0058
AAATAAGC	0.0106
CGCGAGGA	-0.0281
GGCTTTTA	0.0406
ATCGTAAC	0.177
ACGGTGGG	-0.148
CGGTACCG	0.0142
GATTCCGC	0.0804
TCTAGGCA	-0.111
CTGTCTAA	0.114
CACGGTCG	-0.0893
TCCAAGCA	0.0574
GAGCAGAC	-0.159
CACGCGAG	0.189
AGTAAAGG	0.154
AGAGGTGG	-0.0773

Sequence	PBM E-score
ACTAGGCC	-0.35
TGACAACA	0.148
GTTAGATA	0.102
CCGTAAGG	0.0886
ACTCGCAT	-0.0215
CTTGGGGA	-0.0776
CACATGCC	0.0814
AAAGACCA	-0.156
CTTGCCAA	-0.21
TTCAGGAA	-0.0113
CACCTCAA	0.0958
CCCTAGGG	-0.141
ATGACATC	-0.0108
AATAATCT	0.0183
ATTAGGCG	0.198
TGACCAAA	-0.0564
ATGAACGA	0.092
ACTGAATG	0.0483
CGCCTACG	0.147
GGAACCTA	-0.209
